Experimental data taken from PubChem BioAssay AID488969 (Vanderbilt High Throughput Screening Facility, 2010).
In all, about 110,000 compounds were measured (“z-score”: median about -0.1, highest 2% from about 2 on). Some of the results follow.

What follows are molecules tested against Metabotropic glutamate receptor 8 (Rattus norvegicus) (UniProt P70579) (assay: rat mGluR8 modulators via GIRK flux, primary screen, cell-based, thallium flux, HTS (AID 488969)). Settings: HEK293 rat mGluR8, GIRK (G protein-gated inwardly rectifying potassium channel) thallium flux, FluoZin2; at 10 µM; stronger effect = higher value; submaximal glutamate (EC20) added with thallium.
Chain of UniProt P70579 (P70579 whole entry, looked up): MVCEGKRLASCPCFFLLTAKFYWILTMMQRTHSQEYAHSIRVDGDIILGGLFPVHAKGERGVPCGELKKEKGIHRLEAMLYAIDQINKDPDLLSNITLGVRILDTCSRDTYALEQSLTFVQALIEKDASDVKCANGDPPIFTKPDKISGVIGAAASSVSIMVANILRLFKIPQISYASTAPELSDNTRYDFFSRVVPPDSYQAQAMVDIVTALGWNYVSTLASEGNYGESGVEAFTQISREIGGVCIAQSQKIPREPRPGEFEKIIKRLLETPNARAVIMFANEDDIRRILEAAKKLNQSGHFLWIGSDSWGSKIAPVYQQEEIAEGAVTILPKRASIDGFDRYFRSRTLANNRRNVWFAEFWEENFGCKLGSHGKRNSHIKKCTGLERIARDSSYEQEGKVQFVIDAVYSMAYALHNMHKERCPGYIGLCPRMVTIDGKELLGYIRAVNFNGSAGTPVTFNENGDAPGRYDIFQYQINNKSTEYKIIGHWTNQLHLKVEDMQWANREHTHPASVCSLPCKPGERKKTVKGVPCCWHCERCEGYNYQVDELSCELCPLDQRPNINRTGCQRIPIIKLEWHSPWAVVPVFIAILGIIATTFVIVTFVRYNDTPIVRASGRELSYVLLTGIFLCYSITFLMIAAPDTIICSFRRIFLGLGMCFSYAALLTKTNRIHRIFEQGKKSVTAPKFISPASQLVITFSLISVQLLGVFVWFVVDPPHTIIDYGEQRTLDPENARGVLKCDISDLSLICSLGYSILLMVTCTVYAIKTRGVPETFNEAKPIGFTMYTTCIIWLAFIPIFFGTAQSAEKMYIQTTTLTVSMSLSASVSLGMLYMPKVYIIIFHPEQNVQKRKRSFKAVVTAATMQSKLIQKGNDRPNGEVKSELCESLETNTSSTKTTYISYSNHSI

First: Cc1cccn2c(=O)c(/C=C(\C#N)C(=O)NCc3ccco3)c(N3CCCCC3)nc12
Second: Cc1cc(C)cc(NC(=O)/C(C#N)=C/c2cn(CC(=O)NCc3ccco3)c3ccccc23)c1
The z-score of the first is lower: -0.532 for the first, 0.00755 for the second.

Compared with `CCOC(=O)CCC(=O)N1CCOCCOCCOCC1`, `Cc1cc(C)c(NC(=O)CCCN2CCOCC2)c(C)c1` is lower in z-score: -0.0418 for the first, -0.0686 for the second.

First: Cc1cccc2cc(COC(=O)COc3ccccc3)c(=O)[nH]c12
Second: COc1ccc2[nH]c(=O)c(CN(C(=O)c3ccccn3)c3ccccc3)cc2c1
The z-score of the first is higher: 0.558 for the first, -0.101 for the second.

Compared with `COCCNC(=O)c1cc(-c2ccccc2OC)on1`, `COc1ccccc1CNC(=O)CCN1C(=O)COc2ccc(C)cc21` is lower in z-score: 0.615 for the first, -0.114 for the second.

First: COC(=O)Cc1[nH]n(-c2nc3ccccc3s2)c(=O)c1C(C)=O
Second: COc1ccc(/C=N/OCC(=O)Nc2nc3ccccc3s2)cc1
The z-score of the first is higher: 0.0239 for the first, -0.132 for the second.

Compared with `O=S(=O)(Nc1ccc(N=Nc2ccc(O)c3ccccc23)cc1)c1ccccc1`, `COc1ccc(C(CC(=O)c2ccccc2)S(=O)(=O)c2ccccc2)cc1` (stereo not drawn) is lower in z-score: 0.0802 for the first, -0.439 for the second.

First: CN1CCN(CC(O)COc2ccc(Cl)cc2)CC1 (stereo not drawn)
Second: COc1ccc(N2CCN(Cc3nc4ccccc4n3C)CC2)cc1
The z-score of the first is higher: -0.061 for the first, -0.258 for the second.

Compared with `COc1ccc(NC(=S)c2ccncc2)cc1`, `COc1ccc(C(=O)CCNc2cccc(Cl)c2)cc1` is higher in z-score: -0.313 for the first, 0.477 for the second.

Compared with `COc1cc(/C=C(/C#N)c2ccc(F)cc2)ccc1Oc1ccc([N+](=O)[O-])cn1`, `Cc1cc(OCc2ccc(F)cc2)nc(-c2ccccc2O)n1` is higher in z-score: -0.405 for the first, 0.498 for the second.

First: COc1ccc(S(=O)(=O)N(C)C)cc1NCC(=O)Nc1ccc(Br)cc1F
Second: COC(=O)c1sc(S(=O)(=O)Nc2ccc(Br)cc2)c(C(=O)OC)c1C
The z-score of the first is lower: -0.135 for the first, -0.105 for the second.

Going from `Cc1noc(C)c1S(=O)(=O)N1CCC(C(=O)NCCC2=CCCCC2)CC1` to `NC(=O)C1CCN(S(=O)(=O)c2cccc(C(=O)O)c2)CC1`, the z-score falls from -0.21 to -0.312.

Going from `CC(c1ccco1)N(C(=O)c1ccccc1NS(=O)(=O)c1cc([N+](=O)[O-])ccc1Cl)c1ccccn1` (stereo not drawn) to `Cc1ccccc1NC(=O)Cn1c(O)c(N=NC(=O)c2ccccc2O)c2ccccc21`, the z-score falls from 2.18 to 0.394.

First: CCN(CC)c1ccc(N2C(=O)C3CCCCC3C2=O)cc1[N+](=O)[O-] (stereo not drawn)
Second: CCCC1(C(=O)OCC)NC(c2ccc(N(C)C)cc2)C2C(=O)N(c3ccc4c(c3)OCCO4)C(=O)C21 (stereo not drawn)
The z-score of the first is lower: -0.215 for the first, 0.158 for the second.

Compared with `O=C1C2CC=CCC2C(=O)N1CNc1ccccc1` (stereo not drawn), `COc1ccc(NC(=S)Nc2ccccc2)cn1` is lower in z-score: 0.0347 for the first, -0.179 for the second.

First: CC1Cc2ccccc2N1C(=O)CSc1ccccc1 (stereo not drawn)
Second: Nc1ccccc1C(=O)NCc1ccccc1
The z-score of the first is lower: -0.501 for the first, 0.0156 for the second.

First: O=C(NC(NC(=S)Nc1c(Cl)cccc1Cl)C(Cl)(Cl)Cl)OCc1ccccc1 (stereo not drawn)
Second: CC(=O)Nc1cc(C(=O)OCC(=O)c2ccccc2)ccc1C
The z-score of the first is lower: -0.771 for the first, -0.309 for the second.

First: c1ccc2c(N3CCCCC3)nc(N3CCCC3)nc2c1
Second: c1ccc(-c2nnc(N3CCN(c4ccccn4)CC3)c3ccccc23)cc1
The z-score of the first is higher: 0.2 for the first, -1.64 for the second.

Compared with `C=CCOc1ccc(CNn2cn[nH]c2=S)cc1OCC`, `CCOc1cc(CNCCc2ccccc2)ccc1OCC(=O)NC(C)(C)C` is higher in z-score: -0.31 for the first, 0.17 for the second.

Going from `C=CCn1c(COc2ccc(Cl)cc2)nnc1SCC(=O)N1CC(=O)Nc2ccccc21` to `C=CCn1c(SCC(=O)Nc2cccnc2Cl)nnc1-c1ccc(Cl)cc1`, the z-score falls from -0.735 to -1.15.

First: O=[N+]([O-])c1cc(C(F)(F)F)ccc1NCCCCNS(=O)(=O)c1ccc2ccccc2c1
Second: Cc1ccc(S(=O)(=O)NCc2ccc3c(c2)cc(C)n3C)cc1
The z-score of the first is lower: -0.124 for the first, 0.206 for the second.

First: COc1ccc(S(=O)(=O)NCC(=O)N(CC(=O)NCC2CCCO2)c2ccccc2C)cc1 (stereo not drawn)
Second: CCOC(=O)C1=C(Cc2ccc(OC)cc2)C(=O)c2ccccc2C1=O
The z-score of the first is lower: 0.0029 for the first, 0.55 for the second.

Compared with `O=C(COc1ccc(S(=O)(=O)N2CCCCC2)cc1)NCc1ccncc1`, `O=C(Nc1nccs1)c1ccc(S(=O)(=O)N2CCCCC2)cc1` is lower in z-score: 0.404 for the first, -0.0844 for the second.

Compared with `Clc1ccc(-c2nnsc2SCc2ccccc2)cc1`, `CN(C)c1nc(-c2ccccc2)c2cnn(Cc3ccccc3)c2n1` is higher in z-score: -0.297 for the first, -0.028 for the second.

First: Cn1cnnc1SCC(=O)c1ccc2c(c1)CCCC2
Second: COc1ccc(NCc2nnc(SCC(=O)c3ccc(OC)cc3)o2)cc1
The z-score of the first is lower: -0.236 for the first, -0.0938 for the second.

Compared with `CCn1cc(C(=O)NC(C)C23CC4CC(CC(C4)C2)C3)cn1` (stereo not drawn), `COc1cc(C(=O)N[C@H](C(=O)NC(C)C23CC4CC(CC(C4)C2)C3)C(C)C)cc(OC)c1OC` (stereo partly drawn) is lower in z-score: -0.0189 for the first, -0.125 for the second.

Going from `Cc1cccc(C2Nc3ccccc3C(=O)N2c2ccccc2)n1` (stereo not drawn) to `O=c1ccn(-c2cccc(C(F)(F)F)c2)nc1-c1ccn(-c2ccccc2)n1`, the z-score falls from 0.027 to -0.401.

First: CC1(C)CC(=O)C=C(Nc2ccccc2F)C1
Second: Cc1ccc(S(=O)(=O)NN2C(=O)c3ccccc3NC2(C)C)cc1
The z-score of the first is higher: 0.217 for the first, -0.0651 for the second.

Going from `CCOC(=O)C1C(c2ccc(O)c(OCC)c2)NC(=S)NC1(O)C(F)(F)F` (stereo not drawn) to `COc1ccccc1NC(=O)C(=O)N1N=C(C(C)C)CC1(O)C(F)(F)F` (stereo not drawn), the z-score rises from -0.494 to 0.117.

Going from `COc1ccc(Cc2nnnn2CC(=O)O)cc1` to `COc1ccc(/C=C2\CCOC2=O)cc1`, the z-score rises from 0.0452 to 0.296.

First: O=P(OCC1CC1)(c1ccccc1)c1ccccc1
Second: O=C(COc1ccccc1)Nc1nonc1NC(=O)COc1ccccc1
The z-score of the first is lower: -0.249 for the first, -0.222 for the second.

Compared with `Cc1sc(NC(=O)c2ccco2)nc1-c1ccccc1`, `Cc1cc(C)nc(SCC(=O)Nc2nc(-c3ccccc3)c(-c3ccccc3)o2)n1` is lower in z-score: 0.0477 for the first, -0.522 for the second.

First: O=[N+]([O-])c1cc(C(F)(F)F)cc([N+](=O)[O-])c1NN=C1CCCCC1
Second: O=[N+]([O-])c1ccc(N2CCOCC2)cc1SCc1ccco1
The z-score of the first is higher: 0.371 for the first, -0.0137 for the second.

Going from `Cc1cc(C)c(NC(=O)COc2nc3ccccc3nc2C)c(C)c1` to `Cc1cc(SC(C)C(=O)Nc2c(C)n(C)n(-c3ccccc3)c2=O)nc2ccccc12` (stereo not drawn), the z-score rises from -0.157 to 0.274.

First: O=C(Nc1ccc(C2CC2(Cl)Cl)cc1)c1ccccc1Br (stereo not drawn)
Second: O=C(N/N=C/C=C/c1ccccc1)c1ccc(Br)cc1
The z-score of the first is lower: -0.341 for the first, 0.2 for the second.

Compared with `C=CCOn1c(=O)c(-c2ccc(OC)c(OC)c2)[n+]([O-])c2ccccc21`, `COc1ccc(/C=C2\SC(=O)N(CC(=O)NNC(=O)c3ccccc3O)C2=O)cc1OC` is lower in z-score: -0.224 for the first, -0.594 for the second.

Going from `Cc1nc(C(=O)N(C)C)nn1-c1cc(Cl)cc(Cl)c1` to `Cc1cc(C(=O)O)ccc1-n1c(C)ccc1C`, the z-score rises from -0.0145 to 0.208.

First: O=c1cc(-c2ccccc2F)nc(-c2ccccc2F)o1
Second: O=C(CSc1nc2ccccc2s1)CSc1nc2ccccc2s1
The z-score of the first is lower: -0.704 for the first, -0.46 for the second.

Compared with `CCOc1cccc2c1OC1(C)CC2NC(=O)N1c1ccc(OC)cc1` (stereo not drawn), `COc1ccc(/C=C2/SC(=S)N(n3c(C)ccc3C)C2=O)cc1` is higher in z-score: 0.492 for the first, 1.14 for the second.

Going from `Cc1ccc2nc(-c3ccc(NS(=O)(=O)c4ccc(F)cc4)cc3)sc2c1` to `CN(CC1CCCO1)S(=O)(=O)c1ccc(C(=O)Nc2nc3cc4c(cc3s2)OCO4)cc1` (stereo not drawn), the z-score rises from -0.296 to -0.166.

Going from `COc1ccc(Br)cc1C1SCCN1S(C)(=O)=O` (stereo not drawn) to `CC(=O)c1cccc(NC(=O)N2CCN(S(C)(=O)=O)CC2)c1`, the z-score rises from 0.00324 to 0.391.

Going from `N#CC[n+]1cc(-c2ccc(Cl)cc2)n2c1CCC2` to `CC(C)c1ccc(-c2c(C#N)c(N)nc(SCC(=O)N3CCCCCC3)c2C#N)cc1`, the z-score falls from -0.315 to -0.612.

First: O=C(CCc1nc(-c2cccs2)no1)NCc1ccc(F)cc1Cl
Second: Cc1ccc(C)c(OCCCC(=O)Nc2nccs2)c1
The z-score of the first is higher: -0.0321 for the first, -0.0356 for the second.

Compared with `CSc1nc(C)cc(C)c1C#N`, `CCCCSc1nc(C)cc(SCC(=O)N/N=C/c2cccc(OC)c2O)n1` is lower in z-score: 0.211 for the first, -0.337 for the second.

Compared with `Cc1c(NC(=O)/C(C#N)=C/c2c(Oc3ccccc3)nc3ccccn3c2=O)c(=O)n(-c2ccccc2)n1C`, `CCOc1cc(/C=C2/C(=O)N(c3ccccc3)N=C2C)ccc1OC(=O)c1cccs1` is lower in z-score: 1.16 for the first, -0.152 for the second.

Going from `CCCCCc1nc2c(=O)n(C)c3ccccc3c2o1` to `CCCCN(CC)Cc1ccc(CNC(=O)Nc2ccccc2)o1`, the z-score rises from -1.57 to 1.09.

First: N=C1C(c2nc3ccccc3s2)=C(O)CN1Cc1ccco1
Second: c1coc(-c2nc3nc4ccccc4n3nc2-c2ccco2)c1
The z-score of the first is higher: -0.323 for the first, -0.582 for the second.

Going from `Cc1cc(NC(=O)C(=O)NCCN2CCN(C(=O)c3cccs3)CC2)ccc1Br` to `CC(C)(C)c1ccc(C(=O)N2CCC(C(=O)NCc3ccncc3)CC2)cc1`, the z-score rises from -0.64 to -0.0266.

Going from `CCCCCCCCCS(=O)(=O)N/N=C/c1cccc([N+](=O)[O-])c1` to `CNC(=O)C(=O)NCC1OCCN1S(=O)(=O)c1ccc([N+](=O)[O-])cc1` (stereo not drawn), the z-score rises from -0.331 to -0.156.

First: CCSc1nnc(N(CCC#N)CCC#N)s1
Second: Cc1nnc(SCC(=O)Nc2nnc(SCc3cccc(Br)c3)s2)s1
The z-score of the first is lower: -0.182 for the first, 0.231 for the second.

Compared with `Cc1cc(C2=NNC(=NC3CC3)SC2)c(C)n1-c1ccccc1F`, `CCC(C)Oc1cccc(C(=O)Nc2ccccc2N2CCOCC2)c1` (stereo not drawn) is lower in z-score: -0.122 for the first, -0.605 for the second.

Going from `COc1ccccc1N1CCN(C(CNC(=O)c2ccc3c(c2)OCO3)c2cccnc2)CC1` (stereo not drawn) to `COc1cccc(C2(O)CCN(C(=O)Cc3cccnc3)CC2)c1`, the z-score rises from 0.0309 to 0.759.

Compared with `CC(=O)OC(C)(C)C#CCN1CCCC1`, `Cc1cc(Cl)ccc1NC(=S)N1CCC(C(N)=O)(N2CCCCC2)CC1` is lower in z-score: -0.000695 for the first, -0.126 for the second.

Compared with `CCOc1c(Cl)cc(CNC(C)(C)CC(C)(C)C)cc1OC`, `CCOC(=O)C(=O)Nc1ccccc1C(=O)NC(C)C` is lower in z-score: -0.232 for the first, -0.286 for the second.

First: COc1ccc(N=C/C=C2\C=C(c3ccccc3)OC(C)(C)O2)cc1
Second: COc1ccc(N2CCN(c3oc(-c4ccco4)nc3C#N)CC2)cc1
The z-score of the first is higher: -0.461 for the first, -1.11 for the second.

Going from `S=C(NCc1ccccc1Cl)NC1CCCC1` to `c1ccc(-c2csc(N3CCOCC3)n2)cc1`, the z-score rises from 0.0412 to 1.33.

Compared with `Cc1nnsc1C(=O)N/N=C/c1ccc2ccccc2c1O`, `Nc1c(Cl)ncnc1N/N=C/c1ccc2ccccc2n1` is higher in z-score: -0.567 for the first, 0.811 for the second.

`CN(C)C(=O)NC(O)C(Cl)Cl` (stereo not drawn) gave a z-score of 0.35.
